{"source": "patent US20080241161A1", "about": "“REMEDY FOR MAMMARY CANCER” (Mitsubishi Pharma Co., priority 2001, published 2008)", "molecules": {"B1": {"name": "GAH antibody: human monoclonal antibody screened for reactivity with gastric and colorectal cancer; heavy and light chain variable regions SEQ. ID NOS. 7 and 8 (antibody, listed as Homo sapiens, V domains shown)", "VH": "QVQLQESGPGLVKPSQTLSLTCTVSGGSISSCGFYWNWIRQHPGKGLEWIGYIYYSGSTYYNPSLKSRVTISLDTSKSQFSLKLSSLTAADTAVYYCARSTRLRGADYWGQGTMVTVSS", "VL": "DIVMTQSPDSLAVSLGERATINCKSSQSVLYNSNNKKYLAWYQQKPGQPPKLLIYWASTRESGVPDRFSGSGSGTDFTLTISSLQAEDVAVYYCQQYYSTPWTFGQGTKVEIKR"}}, "key": {"[1]": {"tested_on": "human mammary cancer tissue", "assay": "Reactivity of GAH antibody with human mammary cancer tissue sections (biotinylated antibody, PerCP-streptavidin fluorescence microscopy)", "format": "binding", "conditions": "of 11 cases of mammary cancer tissue; 100 μg/ml biotinylated GAH antibody, 37° C., 2 hours; judged from intensity and distribution of red fluorescence", "description": "(§1) A GAH antibody as described in Japanese Patent Application Laid-Open No. Hei 5-304987 (Examples 1, 2 and 3) was labeled with a biotinylating reagent (product of Amersham Bioscience). After a paraffin section of human mammary cancer tissue was de-paraffinized and then blocked by dipping it in a 5%-BSA/PBS solution at room temperature for 1 hour, the resulting section was caused to react with 100 μg/ml of a biotinylated GAH antibody solution at 37° C. for 2 hours. The section was washed with PBS and caused to react with 4 μg/ml of a PerCP (peridinin chlorophyll protein) labeled streptavidin solution (product of Becton/Dickinson) for 30 minutes under ice cooling while blocking light. The reactivity of the GAH antibody with the mammary cancer tissue section was detected as red fluorescence of PerCP having an emission wavelength of 680 nm at an excitation wavelength of 490 nm by using a fluorescence microscope."}, "MDA-MB231": {"tested_on": "MDA-MB231", "assay": "Reactivity of GAH antibody with tissue sections of mammary cancer cell line tumors grown subcutaneously in nude mice", "format": "binding", "conditions": "MDA-MB231 tumor from nude mouse; three lines tested (MDA-MB231, MDA-435, MDA-MB468), positive reaction recognized only from MDA-MB231", "description": "as §1\nThe mammary cancer cell lines MDA-MB231, MDA-435 and MDA-MB468 (each, product of Dainippon Pharmaceutical) were cultured and each cell was implanted subcutaneously to a nude mouse (5 week old, male, purchased from Nippon CLEA). […] The reactivity of the GAH antibody with each of these mammary cancer tissue sections was analyzed in a similar manner to that employed for the analysis of the reactivity with the human mammary cancer tissue section."}}}
{"molecule": "B1", "values": [{"measurement": "cases of mammary cancer tissue in which positive reaction occurred", "setting": "[1]", "result": 5, "unit": "cases"}, {"measurement": "reactivity of the GAH antibody with mammary cancer tissue section", "setting": "MDA-MB231", "result": "positive reaction"}]}
